# Test results published in PubChem BioAssay AID485313 (National Center for Advancing Translational Sciences (NCATS), 2010).
# The campaign covered roughly 320,000 compounds. About 7,600 (2.4%) were called active. This list was built around the results that the source calls inconclusive (neither active nor inactive); the mix of calls is not that of the screen. Calls follow the shape of the dose curve; as a rule, active = well fitted activation curve with a large enough effect; inconclusive = small, poorly fitted or top-dose-only effect; inactive = no such curve, though single readings can be large or run the other way. No potency is given beside an inconclusive call; the fits are too rough.
# Test: qHTS Assay for NPC1 Promoter Activators; also: nearly all actives have a fitted effect of over 60% in size;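 as to activation: reporter is driven by a mutant NPC1 promoter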
# Conditions: Huh7 NPC1 promoter luciferase reporter, 24 h; series mostly up to 9.22 µM
# In short: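 Stably transfected Huh7 (NPC1 promoter→luciferase), 1500 cells/well in Opti-MEM + 10% FBS, 2 h settle, then compound 24 h at 37 °C. Luminescence after 10 min with Amplite reagent.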
# Potency is read from the fitted curve at half-maximal effect; tags tell the direction and shape of the fitted curve.
row,SMILES,Potency
1,COc1ccc(CN2CCn3ncc(C(=O)Nc4ccccc4)c3C2=O)cc1,"inconclusive [activator, partial curve]"
2,CCOc1ccc(/C=N/NC(=O)Cc2cccs2)cc1,"inconclusive [activator, single point]"
3,COc1cc(C(=O)Nc2ccc(N3CCN(C(=O)c4ccc(C)cc4)CC3)cc2)cc(OC)c1OC,"inconclusive [activator, single point]"
4,CC/C(C)=N/Nc1nc(-c2cc3cccc(OC)c3oc2=O)cs1,active: 2.24 µM
5,COC(=O)Cc1ccc2sc(-c3ccccc3)nc2c1,active: 1.58 µM
6,CCN1CCN(Cc2ccc3c(c2)Cc2ccccc2-3)CC1,inactive
7,Cc1cccn2c(N)c(-c3ccccc3)nc12,"inconclusive [activator, partial curve]"
8,CCC1CN(C(=O)N2CCC(C(=O)NCc3cc(OC)c(OC)c(OC)c3)CC2)c2ccccc2O1 (stereo unspecified),inactive
9,CCOC(=O)NC(=O)CSc1nc(-c2ccc(C)c(C)c2)cn1-c1ccccc1,"inconclusive [activator, partial curve]"
10,O=C(Nc1ccc(N2CCOCC2)cc1)c1cc2c(s1)CCCC2,inactive
11,O=C(Nc1nc2cc3c(cc2s1)OCCO3)c1cccc(N2C(=O)CCC2=O)c1,"inconclusive [activator, single point]"
12,COc1cccc(C2=Nc3cccc4cccc(c34)N2)c1,"inconclusive [activator, single point]"
13,OC1CCCN(Cc2cn(Cc3ccccc3)nc2-c2cc3ccccc3o2)C1 (stereo unspecified),"inconclusive [activator, single point]"
14,Nc1c(-c2ccc(Cl)cc2)cnn1-c1cccc(C(F)(F)F)c1,"inconclusive [activator, single point]"
15,CCc1ccc(-c2ccc(SCC(=O)NCC3CCCO3)nn2)cc1 (stereo unspecified),"inconclusive [activator, single point]"
16,Cc1nc(Nc2ccccc2)sc1C(=O)Nc1ccccc1,"inconclusive [activator, single point]"
17,CC1CN(C(=O)CCNC(=O)c2ccc(Cl)cc2)CC(C)O1 (stereo unspecified),inactive
18,COC(=O)c1ccsc1NC(=O)CCc1ccccc1,"inconclusive [activator, single point]"
19,C/C(=N\NC(=O)c1ccc(-n2cnnn2)cc1)c1ccc(Cl)cc1,inactive
20,Cc1ccc(OCC(=O)Nc2cccc(-c3nnc(-c4ccccc4)o3)c2)cc1,"inconclusive [activator, single point]"
21,COc1ccc(C(=O)Nc2cccc(C(=O)N3CCCC3)c2)cc1,"inconclusive [activator, single point]"
22,Cc1cc(NC(=O)CCC(=O)N(c2ccccc2)C(C(=O)NC2CCCC2)c2ccccc2C)no1 (stereo unspecified),"inconclusive [activator, single point]"
23,Cc1ccc2nc(C)/c(=N\O)c(C)nc2c1,inactive
24,Cc1ccc(-c2noc(-c3ccoc3C)n2)cc1,"inconclusive [activator, partial curve]"
25,CC(C)CC(=O)NC(=S)Nc1ccc(Cl)cn1,"inconclusive [activator, partial curve]"
26,C/C(=N\N=C\c1ccccc1F)c1nnn(-c2nonc2N)c1C,"inconclusive [activator, partial curve]"

row,SMILES,Potency
1,O=C(COc1ccc(S(=O)(=O)NC2CCCCC2)cc1)N1CCN(c2ccc(F)cc2)CC1,inactive
2,Nc1ccccc1C#Cc1ccccc1,"inconclusive [activator, full curve]"
3,COc1cc(/C=C2\CCC(C3CCCC3)C2=O)ccc1OC(C)C (stereo unspecified),inactive
4,CCOc1ccc(-c2ccc(SCC(=O)Nc3nnc(C)s3)nn2)cc1,"inconclusive [activator, full curve]"
5,COCCCN1C(=O)c2ccc(C(=O)NCc3ccccn3)cc2C1=O,inactive
6,NNC(=O)c1ccc(COc2ccc3ccccc3c2)cc1,"inconclusive [activator, partial curve]"
7,Nc1nc(SCC(=O)Nc2ccc(OCc3ccccc3)cc2)n[nH]1,"inconclusive [activator, partial curve, poor fit]"
8,Cc1ccc(N/C=C2/Sc3ccccc3NC2=O)cc1,"inconclusive [activator, single point]"
9,CCN1CCN(CC(=O)N2CCCC(C(=O)c3ccc(Oc4ccccc4)cc3)C2)CC1 (stereo unspecified),"inconclusive [activator, single point]"
10,CC(C)(C)c1cc(NC(=O)c2cccc([N+](=O)[O-])c2)no1,active: 2.24 µM
11,COC(=O)c1c(NC(=O)CSc2nnc3ccccn23)sc2c1CCC2,inactive
12,O=C(/C=C/c1ccc2ccccc2n1)c1cc(Br)ccc1O,inactive
13,Cc1cccc(/C=N\NC(=O)c2csnn2)c1,"inconclusive [activator, partial curve]"
14,CCCn1nc(C(=O)NNC(=O)Cc2ccc(S(=O)(=O)N3CCOCC3)s2)c2ccccc2c1=O,inactive
15,COc1cc(OC)cc(C(=O)N[C@H](C(=O)Nc2cc(C)cc(C)c2)C(C)C)c1,inactive
16,CC(NC(=O)C1CCC(C(=O)NC(C)c2ccccc2)CC1)c1ccccc1 (stereo unspecified),inactive
17,C=CCN1C=CC(=C/C=C(/C#N)C(=O)OCC)C=C1,active: 2.51 µM
18,CSc1ccc(CCNC(=O)c2cccc3c2C(=O)N(C2CCCCC2)C3)cc1,inactive
19,Cc1nn(C)c(C)c1/C=C/C(=O)c1ccccc1,"inconclusive [activator, single point]"
20,CNC(=S)N/N=C/c1ccc(N(C)C)cc1,active: 3.55 µM
21,COc1ccccc1NC(=O)c1ccc2nc(C)sc2c1,active: 3.98 µM
22,Cc1cccn2cc(-c3c[nH]c4ccccc34)nc12,"inconclusive [activator, single point]"
23,N/C(=N\OC(=O)c1ccco1)c1ccc(Br)cc1,"inconclusive [activator, partial curve]"
24,O=C(Nc1nccs1)c1ccc(S(=O)(=O)NCc2cccs2)cc1,inactive
25,Cn1c(=N)n(CC(=O)c2ccc(F)cc2)c2ccccc21,"inconclusive [activator, partial curve]"
26,Cn1ccc(NC(=O)c2ccc(Cl)cc2Cl)n1,active: 3.98 µM

row,SMILES,Potency
1,O=C(Nc1nccs1)c1ccc(Br)s1,"inconclusive [activator, single point]"
2,CCn1ccnc1CN(C)Cc1nc(-c2ccc3c(c2)OCO3)no1,"inconclusive [activator, partial curve]"
3,Cc1ccc(C(=O)OCC(=O)N2CCCCCC2)c(O)c1,"inconclusive [activator, single point]"
4,O=C(NCc1ccccc1)c1ccc(-c2ccccc2F)o1,inactive
5,Cn1c(N)c(C(=O)CSc2nnc(C3CC3)n2-c2ccccc2)c(=O)n(C)c1=O,inactive
6,O=C(COc1ccccc1Cl)Nc1ccccc1C(=O)Nc1cccc(C(=O)O)c1,"inconclusive [activator, partial curve]"
7,O=C(COC(=O)c1ccccc1[N+](=O)[O-])NC(=O)c1ccccc1,inactive
8,Nc1nonc1-n1nnc(C(=O)N/N=C/c2ccccc2Br)c1CN1CCCC1,inactive
9,COc1ccc(NC(=O)CSc2n[nH]c(-c3ccncc3)n2)c([N+](=O)[O-])c1,inactive
10,Cc1cccc(NC(=O)c2ccccc2O)c1C,"inconclusive [activator, single point]"
11,Cc1ccccc1NC(=O)COc1ccc2c(c1)OC(C)(C)CC2=O,"inconclusive [activator, partial curve]"
12,O=C(Nc1ccc(Cl)cc1)Nc1ccccc1Sc1ncc([N+](=O)[O-])s1,"inconclusive [activator, partial curve]"
13,CCN(CC)c1ccc(CN(C(=O)c2ccco2)C2CCS(=O)(=O)C2)cc1 (stereo unspecified),"inconclusive [activator, single point]"
14,CCc1cccc(NC(=S)N2CCC(c3ccccc3)C2)c1 (stereo unspecified),"inconclusive [activator, partial curve]"
15,O=C(O)c1ccc(-c2nc(-c3ccc(Cl)cc3)cs2)cc1,"inconclusive [activator, partial curve]"
16,Nc1nc2ccccc2n1/N=C/c1ccc(Br)cc1,"inconclusive [activator, partial curve]"
17,COC(=O)c1[nH]c2c(c1C)C(=O)CCC2,inactive
18,C(=C\c1ccco1)/c1ccc2ccccc2n1,"inconclusive [activator, partial curve]"
19,CC1(C(=O)OCC(=O)Nc2ccccc2)CC1(Cl)Cl (stereo unspecified),"inconclusive [activator, single point]"
20,O=C(c1ccc(-c2nc3ccccc3s2)o1)N1CCN(c2ccccc2O)CC1,"inconclusive [activator, partial curve]"
21,COc1ccc(C(=O)Nc2ccccc2C(=O)NCCN2CCOCC2)cc1,inactive
22,Cc1ccc(-n2nc3cc(Cl)c(NC(=O)c4ccco4)cc3n2)cc1,"inconclusive [activator, full curve]"
23,c1ccc2oc(CCc3nc4ccccc4o3)nc2c1,"inconclusive [activator, single point]"
24,CCOc1ccc(NC(=O)CCC(=O)NNC(=O)COc2ccc(C)cc2)cc1,inactive
